Reference: patent US10299477B2 (priority 2015, dated 2019)

Experiments:
Magnaporthe grisea = format: in vivo; conditions: 250 ppm spray, preventive; control value class
Phytophthora infestans = format: in vivo; conditions: 250 ppm spray (2.5 ml/pot), preventive; 5-10 days after inoculation; control value class
[1] = test system: Colletotrichum orbiculare; conditions: 250 ppm spray (2.5 ml/pot), preventive; 6-10 days after inoculation; control value class

Structure (SMILES) | Test A control value (blast on rice) (Magnaporthe grisea) | Test F control value (late blight on tomato) (Phytophthora infestans) | Test H control value (anthracnose on cucumber) [1]
COc1cc(OC)c(Cl)c(-c2ccc(=O)n(CC(F)F)c2-c2c(F)cccc2F)c1 [Compound 337] | H (H shows more than 50% of control values) | H (H shows more than 50% of control values) | H (H shows more than 50% of control values)
COc1cc(OC)c(Cl)c(-c2ccc(=O)n(C)c2-c2c(F)cc(OCC(F)F)cc2F)c1 [Compound 338] | H (H shows more than 50% of control values) | H (H shows more than 50% of control values) | H (H shows more than 50% of control values)
Cn1c(-c2c(F)cc(F)cc2F)c(-c2cc(F)ccc2Cl)ccc1=O [Compound 339] | H (H shows more than 50% of control values) | H (H shows more than 50% of control values) | H (H shows more than 50% of control values)
Cn1c(-c2c(F)cc(F)cc2F)c(-c2cc(F)ccc2Cl)cc(Cl)c1=O [Compound 340] | H (H shows more than 50% of control values) | L (L shows 50% or less of control values) | H (H shows more than 50% of control values)
CCn1c(-c2c(F)cccc2F)c(-c2cccc(C#N)c2)ccc1=O [Compound 341] | H (H shows more than 50% of control values) | L (L shows 50% or less of control values) | L (L shows 50% or less of control values)
CCN1C(=O)CCC(c2cc(OC)cc(OC)c2Cl)=C1c1c(F)cc(F)cc1F [Compound 342] | H (H shows more than 50% of control values) | L (L shows 50% or less of control values) | H (H shows more than 50% of control values)
COc1cc(OC)c(Cl)c(-c2ccc(=O)n(CC(F)F)c2-c2c(F)cc(F)cc2F)c1 [Compound 343] | H (H shows more than 50% of control values) | H (H shows more than 50% of control values) | H (H shows more than 50% of control values)
CCc1ccccc1-c1ccc(=O)n(C)c1-c1c(F)cccc1F [Compound 344] | H (H shows more than 50% of control values) | L (L shows 50% or less of control values) | L (L shows 50% or less of control values)
O=c1ccc(-c2ccc(Cl)cc2Cl)c(-c2c(F)cccc2F)n1CC(F)F [Compound 345] | H (H shows more than 50% of control values) | H (H shows more than 50% of control values) | H (H shows more than 50% of control values)
Cn1c(-c2c(F)cccc2F)c(-c2ccc(Cl)cc2Cl)ccc1=O [Compound 346] | H (H shows more than 50% of control values) | L (L shows 50% or less of control values) | L (L shows 50% or less of control values)
O=c1c(Cl)cc(-c2ccc(Cl)cc2Cl)c(-c2c(F)cccc2F)n1CC(F)F [Compound 347] | H (H shows more than 50% of control values) | L (L shows 50% or less of control values) | H (H shows more than 50% of control values)
Cn1c(-c2c(F)cccc2F)c(-c2ccc(Cl)cc2Cl)cc(Cl)c1=O [Compound 348] | H (H shows more than 50% of control values) | L (L shows 50% or less of control values) | L (L shows 50% or less of control values)
CCn1c(-c2c(F)cccc2F)c(-c2cccc(Cl)c2Cl)ccc1=O [Compound 349] | H (H shows more than 50% of control values) | H (H shows more than 50% of control values) | H (H shows more than 50% of control values)
CCn1c(-c2c(F)cccc2F)c(-c2cccc(Cl)c2Cl)cc(Cl)c1=O [Compound 350] | H (H shows more than 50% of control values) | L (L shows 50% or less of control values) | L (L shows 50% or less of control values)
C#Cc1cc(-c2cc(OC)ccc2Cl)c(-c2c(F)cccc2F)n(CC)c1=O [Compound 351] | H (H shows more than 50% of control values) | L (L shows 50% or less of control values) | H (H shows more than 50% of control values)
CCn1c(-c2c(F)cccc2F)c(-c2cc(OC)ccc2Cl)cc(C2CC2)c1=O [Compound 352] | H (H shows more than 50% of control values) | L (L shows 50% or less of control values) | L (L shows 50% or less of control values)

Structure (SMILES) | Test A control value (blast on rice) (Magnaporthe grisea) | Test F control value (late blight on tomato) (Phytophthora infestans) | Test H control value (anthracnose on cucumber) [1]
CCn1c(-c2c(F)cccc2F)c(-c2cccc(C#N)c2)cc(Cl)c1=O [Compound 353] | H (H shows more than 50% of control values) | L (L shows 50% or less of control values) | L (L shows 50% or less of control values)
CCn1c(-c2c(F)cc(F)cc2F)c(-c2cc(Cl)ccc2Cl)ccc1=O [Compound 354] | H (H shows more than 50% of control values) | L (L shows 50% or less of control values) | H (H shows more than 50% of control values)
CCn1c(-c2c(F)cc(F)cc2F)c(-c2cc(Cl)ccc2Cl)cc(Cl)c1=O [Compound 355] | H (H shows more than 50% of control values) | L (L shows 50% or less of control values) | H (H shows more than 50% of control values)
CCN1C(=O)CCC(c2cc(F)ccc2Cl)=C1c1c(F)cccc1F [Compound 356] | H (H shows more than 50% of control values) | H (H shows more than 50% of control values) | H (H shows more than 50% of control values)
CN1C(=O)CCC(c2cc(F)ccc2Cl)=C1c1c(F)cccc1F [Compound 357] | H (H shows more than 50% of control values) | H (H shows more than 50% of control values) | H (H shows more than 50% of control values)
CCn1c(-c2c(F)cccc2F)c(-c2cc(F)ccc2Cl)ccc1=O [Compound 358] | H (H shows more than 50% of control values) | H (H shows more than 50% of control values) | H (H shows more than 50% of control values)
Cn1c(-c2c(F)cccc2F)c(-c2cc(F)ccc2Cl)ccc1=O [Compound 359] | H (H shows more than 50% of control values) | H (H shows more than 50% of control values) | H (H shows more than 50% of control values)
CCn1c(-c2c(F)cccc2F)c(-c2cc(F)ccc2Cl)cc(Cl)c1=O [Compound 360] | H (H shows more than 50% of control values) | L (L shows 50% or less of control values) | H (H shows more than 50% of control values)
CCn1c(-c2c(F)cccc2F)c(-c2cc(F)ccc2Cl)cc(Br)c1=O [Compound 361] | H (H shows more than 50% of control values) | L (L shows 50% or less of control values) | L (L shows 50% or less of control values)
Cn1c(-c2c(F)cccc2F)c(-c2cc(F)ccc2Cl)cc(Cl)c1=O [Compound 362] | H (H shows more than 50% of control values) | L (L shows 50% or less of control values) | H (H shows more than 50% of control values)
Cn1c(-c2c(F)cccc2F)c(-c2cc(F)ccc2Cl)cc(Br)c1=O [Compound 363] | H (H shows more than 50% of control values) | L (L shows 50% or less of control values) | H (H shows more than 50% of control values)
Cn1c(-c2c(F)cccc2F)c(-c2cccc(Cl)c2Cl)ccc1=O [Compound 364] | H (H shows more than 50% of control values) | L (L shows 50% or less of control values) | H (H shows more than 50% of control values)
Cn1c(-c2c(F)cccc2F)c(-c2cccc(Cl)c2Cl)cc(Cl)c1=O [Compound 365] | H (H shows more than 50% of control values) | L (L shows 50% or less of control values) | H (H shows more than 50% of control values)
O=c1ccc(-c2cccc(Cl)c2Cl)c(-c2c(F)cccc2F)n1CC(F)F [Compound 366] | H (H shows more than 50% of control values) | L (L shows 50% or less of control values) | H (H shows more than 50% of control values)
O=c1c(Cl)cc(-c2cccc(Cl)c2Cl)c(-c2c(F)cccc2F)n1CC(F)F [Compound 367] | H (H shows more than 50% of control values) | L (L shows 50% or less of control values) | L (L shows 50% or less of control values)
